Experimental data as given in PubChem BioAssay AID488969 (Vanderbilt High Throughput Screening Facility, 2010).
In all, about 110,000 compounds were measured (“z-score”: median about -0.1, highest 2% from about 2 on). This is one part of the list.

These molecules were tested against Metabotropic glutamate receptor 8 (Rattus norvegicus) (UniProt P70579) (assay: rat mGluR8 modulators via GIRK flux, primary screen, cell-based, thallium flux, HTS (AID 488969)). Settings: HEK293 rat mGluR8, GIRK (G protein-gated inwardly rectifying potassium channel) thallium flux, FluoZin2; at 10 µM; stronger effect = higher value; submaximal glutamate (EC20) added with thallium.
Chain of UniProt P70579 (P70579 whole entry, looked up): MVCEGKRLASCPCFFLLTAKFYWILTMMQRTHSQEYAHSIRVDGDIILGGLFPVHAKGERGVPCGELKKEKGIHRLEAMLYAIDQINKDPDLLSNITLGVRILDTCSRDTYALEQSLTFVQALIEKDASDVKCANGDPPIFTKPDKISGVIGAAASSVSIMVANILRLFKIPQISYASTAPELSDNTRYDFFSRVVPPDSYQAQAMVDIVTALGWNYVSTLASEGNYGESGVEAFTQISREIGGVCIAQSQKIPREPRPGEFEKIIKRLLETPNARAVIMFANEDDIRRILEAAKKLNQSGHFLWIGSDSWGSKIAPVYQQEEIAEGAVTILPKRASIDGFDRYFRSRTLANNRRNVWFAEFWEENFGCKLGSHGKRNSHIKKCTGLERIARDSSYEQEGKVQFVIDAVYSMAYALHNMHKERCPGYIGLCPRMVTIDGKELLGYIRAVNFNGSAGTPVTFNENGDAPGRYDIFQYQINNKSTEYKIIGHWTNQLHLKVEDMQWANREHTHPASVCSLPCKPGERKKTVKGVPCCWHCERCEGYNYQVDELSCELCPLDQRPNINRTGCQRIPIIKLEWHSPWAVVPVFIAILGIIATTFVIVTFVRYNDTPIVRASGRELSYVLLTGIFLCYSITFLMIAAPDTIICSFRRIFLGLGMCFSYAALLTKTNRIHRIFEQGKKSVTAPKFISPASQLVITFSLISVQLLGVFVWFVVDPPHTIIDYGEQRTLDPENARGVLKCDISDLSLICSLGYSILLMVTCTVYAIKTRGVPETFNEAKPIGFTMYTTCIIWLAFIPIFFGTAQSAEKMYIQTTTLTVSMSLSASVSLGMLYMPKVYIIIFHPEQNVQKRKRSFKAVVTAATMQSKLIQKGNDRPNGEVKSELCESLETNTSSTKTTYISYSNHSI

SMILES	z-score
CCOC(=O)CCCNC(=O)CCCNC(=O)C(c1ccccc1)c1ccccc1	0.296
CCN1CNC(=S)N(C(C)c2ccccc2)C1 (stereo not given)	1.45
CC1=C(C(=O)OC(C)(C)C)C(c2cccs2)NC(=O)N1 (stereo not given)	-0.249
C/C(=N\NC(=O)c1cc(C(C)C)[nH]n1)c1ccco1	0.342
O=[N+]([O-])c1ccc(Cl)c(/C=N/N2CCN(Cc3ccccc3Cl)CC2)c1	0.00613
CC(C)(C)c1ccc(C(=O)N2CCN(c3nc4ccccc4o3)CC2)cc1	0.658
Cn1c(CCCOc2ccc(Cl)cc2Cl)nnc1SCC(=O)Nc1nccs1	-0.474
Cc1n[nH]c(C)c1CCCOc1ccccc1	0.185
Cc1ccc(-c2nc3ccccc3n3c(C)nnc23)cc1	-0.0953
COc1ccc(C)cc1NC(=O)C1CCCN1S(=O)(=O)c1ccc2c(c1)CCC(=O)N2 (stereo not given)	-0.304
CCCCn1c2c(c(=O)n(C)c1=O)C(c1ccc(OC)cc1)N1CCCCCC1=N2 (stereo not given)	-0.418
COc1ccc(-c2csc(NC(C)=O)n2)cc1OC	0.168
Cc1ccc(N(CC(=O)N/N=C/c2cc(C)n(-c3ccccc3)c2C)S(C)(=O)=O)c(C)c1	-0.508
COC(=O)c1cc(=O)nc2sccn12	-0.417
Cc1cccc(C)c1N=Cc1c(O)n(-c2nccs2)c(=O)c2ccccc12	-1.27
CC[C@H](C)[C@H](NS(=O)(=O)c1ccc(C)cc1)C(=O)N1CCC(C(=O)N[C@@H](C)C(=O)O)CC1	-0.165
COc1ccc(Cl)cc1C(=O)n1nc(C)cc1C	-0.95
Cc1ccc(C2(C(F)(F)F)N=C3Sc4cc(C)cc(C)c4N3C(=O)N2)cc1 (stereo not given)	0.0193
CC(C)(C)c1ccc(OCC(O)CNC(=O)c2ccccc2C(=O)O)cc1 (stereo not given)	-0.0202
CCCCOc1ccc(Cl)cc1CSc1nnc(C)n1N	-0.255
CCOc1cc(-c2cc(-c3ccc(OC)cc3)nc(N)c2C#N)ccc1O	-0.483
O=[N+]([O-])c1ccc(C(=S)N2CCN(Cc3ccccc3)CC2)cc1	-0.261
CCc1ccc2c(c1)C1(NN=C(c3ccccc3)S1)C(=O)N2 (stereo not given)	0.104
COC(=O)c1ccc(C(C(=O)NC2CCCCC2)N(Cc2ccc(F)cc2)C(=O)Cc2cccs2)cc1 (stereo not given)	-0.291
Cc1cc(C(=O)N2CCN(c3ccccc3)CC2)no1	0.106
NC(=O)c1ccccc1N=Cc1ccccn1	-0.317
Cc1sc2nc(SCc3nc(-c4ccccc4)no3)n(-c3ccccc3)c(=O)c2c1C	-0.000241
COc1ccccc1-c1nc(C#N)c(N2CCC(C(N)=O)CC2)o1	-0.232
CC1CCCN(c2nc3ccccc3nc2C(C#N)S(=O)(=O)c2ccccc2)C1 (stereo not given)	-0.527
Cc1nc(NCCNC(=O)c2ccco2)c2c(C)c(C)sc2n1	0.136
